Source: PubChem BioAssay AID540317 (National Center for Advancing Translational Sciences (NCATS), 2011)
Hit rate of the full screen: of about 390,000 compounds, about 2,200 (0.56%) were called active. Inconclusive results, whose numbers are uncertain, are shown with a selection of clear calls. Calls follow the shape of the dose curve; as a rule, active = well fitted inhibition curve with a large enough effect; inconclusive = small, poorly fitted or top-dose-only effect; inactive = no such curve, though single readings can be large or run the other way. Where the call is inconclusive, the potency comes from a doubtful curve fit.

biological target: Chromobox protein homolog 1 (Homo sapiens) (UniProt P83916); assay: HTS for Inhibitors of HP1-beta Chromodomain Interactions with Methylated Histone Tails; settings: AlphaScreen HP1-beta / biotin-H3K9me3 peptide binding; series mostly up to 114 µM; also: nearly all actives have a fitted effect of over 70% in size
UniProt P83916, sequence (P83916 whole entry, looked up): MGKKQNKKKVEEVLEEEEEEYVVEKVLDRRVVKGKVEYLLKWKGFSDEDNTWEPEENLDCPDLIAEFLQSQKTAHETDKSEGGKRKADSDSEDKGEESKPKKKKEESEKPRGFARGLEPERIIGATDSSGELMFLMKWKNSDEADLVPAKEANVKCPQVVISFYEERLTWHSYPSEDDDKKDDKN
Procedure, shortened: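 HP1-beta protein (50 nM final) preincubated 30 min at room temperature with biotinylated H3(1-18)K9me3 peptide (50 nM) in PBS pH 7.4, 0.01% Tween-20, then compound added for 30 min. AlphaScreen streptavidin donor/nickel chelate acceptor beads (10 ug/mL final), 30 min dark, luminescence read.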
Potency is read from the fitted curve at half-maximal effect; tags tell the direction and shape of the fitted curve.

Structure (SMILES) | Potency
COc1cccc(C2CC(=O)Nc3c2c(=O)n(C)c2nc4ccccc4n32)c1OC (configuration not stated) | inactive
Cc1ccc(CSc2c(C)cnc3c2c(=O)n(C)c(=O)n3C)cc1 | inactive
COc1ccc2ccc3c(c2c1)N=CC1(O3)N(C)c2ccccc2C1(C)C (configuration not stated) | inconclusive: 56.2 µM [inhibitor, partial curve, poor fit]
COC(=O)c1nn(C23CC4CC(CC(C4)C2)C3)c2c1C(=O)N(c1ccc(Br)cc1)C2=O | inactive
CC(C)C1Nc2c(O)cc(Cl)c([N+](=O)[O-])c2C2C=CCC21 (configuration not stated) | inconclusive: 28.2 µM [inhibitor, partial curve]
Cc1ccc(NC(=O)CCn2nnc3ccccc32)c(C)c1 | inconclusive: 79.4 µM [inhibitor, partial curve, poor fit]
COc1cc(/C=N/N(C)c2ccccc2)cc(Cl)c1O | active: 22.4 µM
COC1C=COC2(C)Oc3c(C)c(O)c4c(O)c(c(CN5CCN(C)CC5)c(O)c4c3C2=O)NC(=O)C(C)=CC=CC(C)C(O)C(C)C(O)C(C)C(OC(C)=O)C1C (configuration not stated) | inconclusive: 79.4 µM [inhibitor, single point]
CCc1ccc2c(c1)/C(=N/N(C)C(=S)NC)C(=O)N2 | inconclusive: 31.6 µM [inhibitor, partial curve]
O=C(N/N=C/c1cccnc1)c1cc(O)c(O)c(O)c1 | inconclusive: 56.2 µM [inhibitor, partial curve, poor fit]
CCc1ccccc1NC(=O)CCNS(=O)(=O)c1ccc2c(c1)CCCC(=O)N2 | inactive
Cc1cc(O)c(C(C)C)cc1NC(=O)Nc1cc(Cl)ccc1Cl | inconclusive: 50.1 µM [inhibitor, partial curve, poor fit]
Cc1onc(-c2ccccc2)c1C(=O)Nc1nnc(COc2ccc(Cl)cc2)s1 | inconclusive: 14.1 µM [inhibitor, partial curve]
Cc1ccc(-n2cc(CN3CCNC(=O)CC3)c(-c3cccc(C)c3)n2)cc1 | inconclusive: 25.1 µM [inhibitor, full curve]
O=C(N/N=C/c1cc(Cl)cc([N+](=O)[O-])c1O)NC12CC3CC(CC(C3)C1)C2 | inconclusive: 17.8 µM [inhibitor, full curve, poor fit]
O=S(=O)(c1ccc(F)cc1)N1CCN(Cc2ccccc2C(F)(F)F)CC1 | inconclusive: 22.4 µM [inhibitor, full curve]
Cc1ccc(SCc2nc3ncccn3c2Br)cc1 | inactive
COc1cc(/C=N/n2c(-c3n[nH]c4c3CCC4)n[nH]c2=S)cc(OC)c1O | inconclusive: 35.5 µM [inhibitor, partial curve]
c1ccc(COc2cccc(CN3CCN(c4ccccn4)CC3)c2)cc1 | inconclusive: 15.8 µM [inhibitor, full curve]
O=C(CSc1nnnn1-c1ccc(F)cc1)NC1CCCCC1 | inconclusive: 39.8 µM [inhibitor, single point]
CC1CC(C)CN(CCCOc2ccccc2[N+](=O)[O-])C1 (configuration not stated) | inconclusive: 28.2 µM [inhibitor, partial curve]
COc1ccc2c(c1)c(=O)c(C(=O)c1ccccc1)cn2CC(=O)Nc1ccc2c(c1)OCO2 | inactive
COC(=O)c1ccccc1NC(=O)c1noc2c1CCC2 | inconclusive: 50.1 µM [inhibitor, partial curve]

Structure (SMILES) | Potency
C#CCOCCOCCOCCNc1nc(N2CCN(C(=O)CCCCCCCCCCNC(=O)Cn3cc(C[C@@H](C)O)nn3)CC2)nc(N2CCN(C(=O)CCCCCCCCCCNC(=O)[C@@H]([C@H](C)CC)n3cc(CCCCCN)nn3)CC2)n1 | inconclusive: 56.2 µM [inhibitor, partial curve, poor fit]
Brc1cccc(OCCCCN2CCCCC2)c1 | inconclusive: 79.4 µM [inhibitor, single point]
NS(=O)(=O)c1ccc(CCNC(=O)c2ccc(-c3ccccc3)cc2)cc1 | inactive
O=C(CNC(=O)c1ccccc1)OCc1cc(=O)n2nc(C3CCCCC3)sc2n1 | inconclusive: 12.6 µM [inhibitor, partial curve]
COc1ccc2nc(N(Cc3ccccc3)C(=O)CCNC(C)=O)sc2c1 | inactive
O=[N+]([O-])c1ccc([N+](=O)[O-])c(Nc2ccc(N3CCOCC3)cc2)c1 | inconclusive: 15.8 µM [inhibitor, full curve]
COC(=O)c1ccc(NN=Nc2ccc(C)cc2)cc1 | active: 79.4 µM
CCn1cc(CN2CCc3c([nH]c4ccccc34)C2c2cccc(OC)c2OC)c(C)n1 (configuration not stated) | inconclusive: 31.6 µM [inhibitor, full curve]
O=[N+]([O-])c1cccc(C2CC(c3ccccc3)=NN2c2ccccc2)c1 (configuration not stated) | inconclusive: 50.1 µM [inhibitor, partial curve]
CSC[C@H](NC(=O)COc1cc2c(c3oc(=O)c(C)c(C)c13)CCC(C)(C)O2)C(=O)O | inactive
O=c1c2ccccc2n2c(=S)[nH]nc2n1-c1ccccc1 | inconclusive: 56.2 µM [inhibitor, partial curve, poor fit]
O=C1CCCC2=C1C(c1ccco1)Nc1ccc3ccccc3c12 (configuration not stated) | active: 50.1 µM
Oc1ccc(/C=N/N(c2ccccc2)c2ccccc2)cc1O | inconclusive: 50.1 µM [inhibitor, partial curve]
CCc1ccc2oc(C(=O)N(Cc3ccc(N(C)C)cc3)Cc3ccco3)c(C)c2c1 | inconclusive: 12.6 µM [inhibitor, full curve, poor fit]
C/C(=N\Nc1ccc(S(=O)(=O)N2CCOCC2)cc1[N+](=O)[O-])C(C)C | inconclusive: 56.2 µM [inhibitor, partial curve, poor fit]
CC(CCc1ccccc1)NC(=O)Cn1c(=O)nc(-c2ccccc2)c2cc(Cl)ccc21 (configuration not stated) | inactive
Cc1cccc(N2CCN(C(=O)Cn3sc4nc(C)cc(C)c4c3=O)CC2C)c1 (configuration not stated) | active: 8.91 µM
O=C1c2ccccc2-c2onc3c(N4CCN(C5CCCCC5)CC4)cc(NCCO)c1c23 | inconclusive: 28.2 µM [inhibitor, full curve]
Cc1c(CCC(=O)N[C@@H](CCCNC(N)=O)C(=O)O)c(=O)oc2cc3oc4c(c3cc12)CCCC4 | inconclusive: 89.1 µM [inhibitor, partial curve, poor fit]
COc1cccc(Nc2nc3cc(C)ccc3nc2NS(=O)(=O)c2ccc(Cl)cc2)c1 | inactive
CCOC(=O)C1CCCN(Cc2cccs2)C1 (configuration not stated) | inconclusive: 50.1 µM [inhibitor, partial curve]
COc1ccc(NC2c3ncccc3C(=O)N2Cc2cccs2)cc1 (configuration not stated) | inconclusive: 89.1 µM [inhibitor, single point]
COc1cccc(CN2CCNC(=O)C2CC(=O)N2CCCCO2)c1OC (configuration not stated) | inactive

Structure (SMILES) | Potency
COc1cc(Cl)c(C)cc1NC(=O)COC(=O)C1=COCCO1 | inactive
Cc1ccc(NC(Cc2cc(C)no2)c2ccccc2)cc1 (configuration not stated) | inconclusive: 39.8 µM [inhibitor, partial curve]
Cc1cccc(NC(=O)CNC(=O)c2cccc(-n3cccc3)c2)c1C | inconclusive: 17.8 µM [inhibitor, full curve, poor fit]
CCOC(=O)c1cc(-c2ccc(OC)cc2)n(CCC(=O)NCCc2ccccc2)c1C | inactive
COc1ccc(C(=O)N2CCN(C3CCCCC3)CC2)cc1OC | inconclusive: 50.1 µM [inhibitor, partial curve]
CNc1n[nH]c(=S)s1 | active: 25.1 µM
COc1ccc(CN2CCN(Cc3ccc(C(F)(F)F)cc3)CC2)c(OC)c1 | inconclusive: 25.1 µM [inhibitor, partial curve]
CCOc1ccc(Nc2nc(Cl)nc(N3CCN(c4ccc(OC)cc4)CC3)n2)cc1 | inconclusive: 31.6 µM [inhibitor, partial curve, poor fit]
COc1ccc(OCCCCN(C)Cc2ccccc2)cc1 | inconclusive: 28.2 µM [inhibitor, partial curve]
Cc1ccc(CNC(=O)C(C)n2c(=O)cc(C(F)(F)F)c3c(C)nn(C)c32)cc1 (configuration not stated) | inactive
O=c1cc(O)c2ccccc2n1Cc1ccccc1 | inactive
CC(=O)Oc1cc(C(=O)OCC(=O)N2CCc3ccccc3C2)cc(OC(C)=O)c1OC(C)=O | inconclusive: 70.8 µM [inhibitor, single point]
CSc1ccc(CN2CCN(C(=O)CC(C)C)CC2)cc1 | inconclusive: 44.7 µM [inhibitor, partial curve]
C/C=C/c1ccc(OCCCCN(C)Cc2ccccc2)c(OC)c1 | inconclusive: 12.6 µM [inhibitor, partial curve, poor fit]
Clc1ccccc1OCCSc1nnc(-c2cccs2)o1 | inactive
CC1(C)CC(=O)C2=C(C1)NC(Nc1nc3ccccc3o1)=NC2c1cccc(F)c1 (configuration not stated) | inactive
O=c1nc2s/c(=C\c3ccco3)c(=O)n2nc1Cc1ccc(F)cc1 | inconclusive: 31.6 µM [inhibitor, partial curve]
COC(=O)C1=C(C)N(C)C(=O)/C1=C\c1cccs1 | inconclusive: 31.6 µM [inhibitor, partial curve]
CC(C)c1ccc(S(=O)(=O)/N=C2\C=C(NS(=O)(=O)c3ccccc3)C(=O)c3ccccc32)cc1 | active: 20 µM
Cn1cccc1/C=N/NC(=O)CNc1ccc2ccccc2c1 | inconclusive: 44.7 µM [inhibitor, partial curve]
Cc1ccc(CN2C(=O)C(O)(c3c(C)[nH]c4ccccc34)c3ccccc32)cc1 (configuration not stated) | inconclusive: 39.8 µM [inhibitor, partial curve]
